# Reference: the supplement of paper PMC4604168 (melanoma cell lines)
# The other results are listed elsewhere or left out. Repeats are few or missing, and single values can be far off.
# Test system: SkMel28
# Assay: cell count relative to DMSO control; melanoma cells; higher = more viable cells
# Details: library dose: standard library concentration; 72 h
# 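Note: cells treated in 1,536-well plates, then fixed and DAPI-stained, with nuclei counted from automated high-throughput microscope images.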
row,SMILES,cell count
1,"Cn1cncc1[C@@](N)(c1ccc(Cl)cc1)c1ccc2c(c1)c(-c1cccc(Cl)c1)cc(=O)n2C [tipifarnib] + Oc1cc(-c2nc(-c3ccccc3)[nH]c2-c2ccncc2)ccc1Cl [L779450] (first compound 0.05 µM, partner dose 1 µM)",41.8%
2,"Cn1cncc1[C@@](N)(c1ccc(Cl)cc1)c1ccc2c(c1)c(-c1cccc(Cl)c1)cc(=O)n2C [tipifarnib] + COc1ccc(-c2ccc3c(N4CCOCC4)nc(N4C[C@@H](C)O[C@@H](C)C4)nc3n2)cc1CO [KU0063794] (first compound 0.05 µM, partner dose 0.1 µM)",59.2%
3,"Cn1cncc1[C@@](N)(c1ccc(Cl)cc1)c1ccc2c(c1)c(-c1cccc(Cl)c1)cc(=O)n2C [tipifarnib] + CCN(CC)CCCCNc1ncc2cc(-c3cc(OC)cc(OC)c3)c(NC(=O)NC(C)(C)C)nc2n1 [PD173074] (first compound 0.05 µM, partner dose 0.5 µM)",90.4%
4,"C[C@@H]1CCN(C(=O)CC#N)C[C@@H]1N(C)c1ncnc2[nH]ccc12 + Oc1nc(-c2ccc(C(F)(F)F)cc2)nc2c1CSCC2 [XAV939] (first compound 5 µM, partner dose 10 µM)",62.5%
5,"O=C(Nc1cccc(Cl)c1)Nc1ncc(CCNc2ncnc3ccsc23)s1 + CCCCCCCCCCCC1=C(O)C(=O)C=C(O)C1=O [Embelin] (first compound 0.004 µM, partner dose 6 µM)",67.9%
6,"COc1cc(Nc2ncc(F)c(Nc3ccc4c(n3)NC(=O)C(C)(C)O4)n2)cc(OC)c1OC [Tamatinib] + O=C(Nc1ccccc1)c1cc([N+](=O)[O-])ccc1Cl [GW9662] (first compound 2 µM, partner dose 10 µM)",51.9%
7,"Cn1cncc1[C@@](N)(c1ccc(Cl)cc1)c1ccc2c(c1)c(-c1cccc(Cl)c1)cc(=O)n2C [tipifarnib] + N#Cc1c(O)c2c(-c3ccc(-c4ccccc4O)cc3)csc2[nH]c1=O [A769662] (first compound 0.05 µM, partner dose 10 µM)",71%
8,"O=C(Nc1cccc(Cl)c1)Nc1ncc(CCNc2ncnc3ccsc23)s1 + COc1cc(N2CCC(N3CCN(C)CC3)CC2)ccc1Nc1ncc(Cl)c(Nc2ccccc2S(=O)(=O)C(C)C)n1 [NVP-TAE684] (first compound 0.004 µM, partner dose 0.4 µM)",50.4%

# Test system: SkMel2
# Assay: as above
# Details: library dose: standard library concentration; 72 h
row,SMILES,cell count
1,"CC1(C)NC(=O)N(c2ccc([N+](=O)[O-])c(C(F)(F)F)c2)C1=O [nilutamide] + CCc1ccc(CCOc2ccc(CC3SC(=O)NC3=O)cc2)nc1 [pioglitazone] (first compound 5 µM, partner dose 10 µM)",86.8%
2,"O=C(Nc1cccc(Cl)c1)Nc1ncc(CCNc2ncnc3ccsc23)s1 + CC(C)CCN1c2nc(Nc3cc(F)c(O)c(F)c3)ncc2N(C)C(=O)C1C [BID1870] (first compound 0.004 µM, partner dose 1 µM)",60.1%
3,"COc1cc(Nc2ncc(F)c(Nc3ccc4c(n3)NC(=O)C(C)(C)O4)n2)cc(OC)c1OC [Tamatinib] + N#Cc1c(O)c2c(-c3ccc(-c4ccccc4O)cc3)csc2[nH]c1=O [A769662] (first compound 2 µM, partner dose 10 µM)",77.4%
4,"O=C(Nc1cccc(Cl)c1)Nc1ncc(CCNc2ncnc3ccsc23)s1 + COC(=O)c1sccc1S(=O)(=O)Nc1ccc(Nc2ccccc2)cc1OC [GSK0660] (first compound 0.004 µM, partner dose 5 µM)",66.4%
5,"O=C(Nc1cccc(Cl)c1)Nc1ncc(CCNc2ncnc3ccsc23)s1 + c1cc(-c2cnn3cc(-c4ccc(OCCN5CCCCC5)cc4)cnc23)ccn1 [Dorsomorphin] (first compound 0.004 µM, partner dose 2 µM)",64.4%
6,"CC1(C)NC(=O)N(c2ccc([N+](=O)[O-])c(C(F)(F)F)c2)C1=O [nilutamide] + COc1ccc2c(c1)CCC1C2CCC2(C)C(NCCCCCCN3C(=O)C=CC3=O)CCC12 [U73122] (first compound 5 µM, partner dose 2 µM)",108%
7,"O=C(Nc1cccc(Cl)c1)Nc1ncc(CCNc2ncnc3ccsc23)s1 + Oc1cc(-c2nc(-c3ccccc3)[nH]c2-c2ccncc2)ccc1Cl [L779450] (first compound 0.004 µM, partner dose 1 µM)",29.3%
8,"CC1(C)NC(=O)N(c2ccc([N+](=O)[O-])c(C(F)(F)F)c2)C1=O [nilutamide] + Cc1cc([N+](=O)[O-])ccc1NS(=O)(=O)c1cc(Cl)ccc1Cl [FH535] (first compound 5 µM, partner dose 5 µM)",67.4%
9,"O=C(O)c1ccc(-c2c[nH]c3ncc(-c4ccccc4)cc23)cc1C1CCCC1 + CC(C)CCN1c2nc(Nc3cc(F)c(O)c(F)c3)ncc2N(C)C(=O)C1C [BID1870] (first compound 0.8 µM, partner dose 1 µM)",75.4%
10,"Cn1cncc1[C@@](N)(c1ccc(Cl)cc1)c1ccc2c(c1)c(-c1cccc(Cl)c1)cc(=O)n2C [tipifarnib] + COc1cc(N2CCC(N3CCN(C)CC3)CC2)ccc1Nc1ncc(Cl)c(Nc2ccccc2S(=O)(=O)C(C)C)n1 [NVP-TAE684] (first compound 0.05 µM, partner dose 0.4 µM)",47.9%
11,"O=C(O)c1ccc(-c2c[nH]c3ncc(-c4ccccc4)cc23)cc1C1CCCC1 + COc1ccc2c(c1)CCC1C2CCC2(C)C(NCCCCCCN3C(=O)C=CC3=O)CCC12 [U73122] (first compound 0.8 µM, partner dose 2 µM)",72%
12,"C[C@@H]1CCN(C(=O)CC#N)C[C@@H]1N(C)c1ncnc2[nH]ccc12 + O=C(O)C(=O)Nc1sc2c(c1C(=O)O)CCNC2 [TCS401] (first compound 5 µM, partner dose 8.33333 µM)",98.2%
13,"C[C@@H]1CCN(C(=O)CC#N)C[C@@H]1N(C)c1ncnc2[nH]ccc12 + CCCCCCCCCCCC1=C(O)C(=O)C=C(O)C1=O [Embelin] (first compound 5 µM, partner dose 6 µM)",84%
14,"O=C(Nc1cccc(Cl)c1)Nc1ncc(CCNc2ncnc3ccsc23)s1 + COc1ccc(COc2ccc(Cc3cnc(N)nc3N)cc2OC)cc1 [GW2580] (first compound 0.004 µM, partner dose 5 µM)",86.6%
15,"COc1cc(Nc2ncc(F)c(Nc3ccc4c(n3)NC(=O)C(C)(C)O4)n2)cc(OC)c1OC [Tamatinib] + COc1ccc2c(c1)CCC1C2CCC2(C)C(NCCCCCCN3C(=O)C=CC3=O)CCC12 [U73122] (first compound 2 µM, partner dose 2 µM)",78.4%
16,"C[C@@H]1CCN(C(=O)CC#N)C[C@@H]1N(C)c1ncnc2[nH]ccc12 + O=C(Nc1ccccc1)c1cc([N+](=O)[O-])ccc1Cl [GW9662] (first compound 5 µM, partner dose 10 µM)",87%
17,"C[C@@H]1CCN(C(=O)CC#N)C[C@@H]1N(C)c1ncnc2[nH]ccc12 + CC(C)CCN1c2nc(Nc3cc(F)c(O)c(F)c3)ncc2N(C)C(=O)C1C [BID1870] (first compound 5 µM, partner dose 1 µM)",87.6%
18,"O=C(O)c1ccc(-c2c[nH]c3ncc(-c4ccccc4)cc23)cc1C1CCCC1 + Oc1cc(-c2nc(-c3ccccc3)[nH]c2-c2ccncc2)ccc1Cl [L779450] (first compound 0.8 µM, partner dose 1 µM)",29.3%
19,"Cn1cncc1[C@@](N)(c1ccc(Cl)cc1)c1ccc2c(c1)c(-c1cccc(Cl)c1)cc(=O)n2C [tipifarnib] + O=S(=O)(c1ccccc1)N(CC(F)(F)F)c1ccc(C(O)(C(F)(F)F)C(F)(F)F)cc1 [T0901317] (first compound 0.05 µM, partner dose 7 µM)",73.8%
20,"CC1(C)NC(=O)N(c2ccc([N+](=O)[O-])c(C(F)(F)F)c2)C1=O [nilutamide] + O=S(=O)(c1ccccc1)N(CC(F)(F)F)c1ccc(C(O)(C(F)(F)F)C(F)(F)F)cc1 [T0901317] (first compound 5 µM, partner dose 7 µM)",82.8%
21,"O=C(Nc1cccc(Cl)c1)Nc1ncc(CCNc2ncnc3ccsc23)s1 + COc1ccc(-c2ccc3c(N4CCOCC4)nc(N4C[C@@H](C)O[C@@H](C)C4)nc3n2)cc1CO [KU0063794] (first compound 0.004 µM, partner dose 0.1 µM)",73.7%
22,"CC1(C)NC(=O)N(c2ccc([N+](=O)[O-])c(C(F)(F)F)c2)C1=O [nilutamide] + CCCCCCCCCCCC1=C(O)C(=O)C=C(O)C1=O [Embelin] (first compound 5 µM, partner dose 6 µM)",84.2%
23,"COc1cc(Nc2ncc(F)c(Nc3ccc4c(n3)NC(=O)C(C)(C)O4)n2)cc(OC)c1OC [Tamatinib] + COc1cc(N2CCC(N3CCN(C)CC3)CC2)ccc1Nc1ncc(Cl)c(Nc2ccccc2S(=O)(=O)C(C)C)n1 [NVP-TAE684] (first compound 2 µM, partner dose 0.4 µM)",60.4%
24,"COc1cc(Nc2ncc(F)c(Nc3ccc4c(n3)NC(=O)C(C)(C)O4)n2)cc(OC)c1OC [Tamatinib] + Cc1cc([N+](=O)[O-])ccc1NS(=O)(=O)c1cc(Cl)ccc1Cl [FH535] (first compound 2 µM, partner dose 5 µM)",60.5%
